Experimental data as given in patent publication US20130337564A1, “Treatment of Pluripotent Cells” (Janssen Biotech, Inc., priority 2012, published 2013).
Where “and” joins values, the source holds several entries; their conditions need not be identical. Equal entries are not always repeated. At least one read-out could not be matched to a standard name with certainty.

Key:
[1] = system: human embryonic stem cells (H9 or H1 lines); assay: Plate reader (MTS) proliferation assay; format: cell-based; settings: for Raw Data: replicate wells, plate reader proliferation screen of GSK-3B inhibitors
Summary of the method: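 H9 or H1 cells on Matrigel, washed, then given DMEM:F12 with 0.5% FCS, 100 ng/ml activin A and 10 μM compound (days 1–2), then 2% FCS plus activin A (days 3–4). MTS added day 4, OD490 read after 1.5–4 h at 37 °C; triplicates as percent of activin A/Wnt3a control.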

[2] = system: HNF-3beta expression in human embryonic stem cells (H9 line); assay: High content screening assay: HNF-3beta protein expression (differentiation); format: cell-based; settings: total intensity normalised to Wnt 3a/AA control
Summary of the method: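 H9 hESCs on MATRIGEL treated days 1-2 with 10 μM compound in DMEM:F12, 0.5% FCS, 100 ng/ml activin A; days 3-4 with 2% FCS plus activin A without compound. Fixed cells immunostained for Sox17 or HNF-3beta with Draq5 nuclear counterstain. Cell number and staining intensity quantified by high-content imaging, 12 fields/well.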

[3] = relative to AA/Wnt3a/DMSO positive control (100.0) of the same plate

Compound | % Control ([1]; proliferation of human embryonic stem cells, AA/Wnt3a = 100.0, no cells = 0.0) [%] | % Control [1, 3] [%] | Raw Data [1] | HNF-3b Expression Fold over Wnt 3a/AA control [2] [fold]
Cc1c[nH]c(-c2cnc(NCCNc3ccc(C#N)cn3)nc2-c2ccc(Cl)cc2Cl)n1 [Compound 221, 6-[(2-{[4-(2,4-Dichlorophenyl)-5-(4-methyl-1H-imidazol-2-yl)pyrimidin-2-yl]amino}ethyl)amino]pyridine-3-carbonitrile] | 34.8 | 130.9 | 1.7922 and 1.8533 | 1.1562
O=C1NC(=O)C(c2nn(CCO)c3ccccc23)=C1c1cn(-c2cncnc2)c2ccccc12 [Compound 226, 3-[1-(2-Hydroxyethyl)-1H-indazol-3-yl]-4-(1-pyrimidin-5-yl-1H-indol-3-yl)-1H-pyrrole-2,5-dione] |  | 120.0 | 1.7143 and 1.6506 | 0.2973
O=C1NC(=O)C(c2cn(CCCO)c3ncccc23)=C1c1cnccn1 [Compound 47, 3-[1-(3-Hydroxypropyl)-1H-pyrrolo[2,3-b]pyridin-3-yl]-4-pyrazin-2-yl-1H-pyrrole-2,5-dione] |  |  |  | 1.2196
CN(C)c1ccc(-n2cc(C3=C(c4nn(CCO)c5ccccc45)C(=O)NC3=O)c3cc(Cl)ccc32)cn1 [Compound 148, 3-{5-Chloro-1-[6-(dimethylamino)pyridin-3-yl]-1H-indol-3-yl}-4-[1-(2-hydroxyethyl)-1H-indazol-3-yl]-1H-pyrrole-2,5-dione] |  | 105.5 | 1.7865 and 1.2008 | 0.2246
O=C1NC(=O)C(c2cn(CCOCCOCCNC3CCCc4ccccc43)c3ccccc23)=C1c1cn(CCNC2CCCc3ccccc32)c2ccccc12 (centres unmarked) [Compound 144, 3-{1-[2-(1,2,3,4-Tetrahydronaphthalen-1-ylamino)ethyl]-1H-indol-3-yl}-4-(1-{2-[(2-{[2-(1,2,3,4-tetrahydronaphthalen-1-ylamino)ethyl]oxy}ethyl)oxy]ethyl}-1H-indol-3-yl)-1H-pyrrole-2,5-dione] |  | 84.0 | 1.3627 and 1.0693 | 0.2092
O=C1NC(=O)C(c2cn(-c3cccnc3)c3ccccc23)=C1c1cn(CCO)c2ccccc12 [Compound 206, 3-[1-(2-Hydroxyethyl)-1H-indol-3-yl]-4-(1-pyridin-3-yl-1H-indol-3-yl)-1H-pyrrole-2,5-dione] |  | 108.3 | 1.8452 and 1.7710 and 1.5591 | 1.6618
O=C1NC(=O)C2=C1Nc1cccc(c1)OCCC/C=C\CCCOc1cccc2c1 [Compound 233, (11Z)-8,9,10,13,14,15-Hexahydro-2,6:17,21-di(metheno)pyrrolo[3,4-h][1,15,7]dioxazacyclotricosine-22,24(1H,23H)-dione] |  | 93.0 | 1.3481 and 1.3168 | 0.0985
OCCC#Cc1nc(-c2ccc(F)cc2)c(-c2ccncc2)n1CCCc1ccccc1 [Compound 158, 4-[4-(4-Fluorophenyl)-1-(3-phenylpropyl)-5-pyridin-4-yl-1H-imidazol-2-yl]but-3-yn-1-ol] |  | 84.7 | 1.2655 and 1.1829 | 0.2428
COC(=O)c1cncc(-n2cc(C3=C(c4nn(CCO)c5ccccc45)C(=O)NC3=O)c3cc(Cl)ccc32)c1 [Compound 150, Methyl 5-(5-chloro-3-{4-[1-(2-hydroxyethyl)-1H-indazol-3-yl]-2,5-dioxo-2,5-dihydro-1H-pyrrol-3-yl}-1H-indol-1-yl)pyridine-3-carboxylate] |  | 63.3 | 0.8122 and 1.0827 | 0.2600
CN(CCO)CCCn1nc(C2=C(c3cn(-c4cccnc4)c4ccccc34)C(=O)NC2=O)c2ccccc21 [Compound 198, 3-(1-{3-[(2-Hydroxyethyl)(methyl)amino]propyl}-1H-indazol-3-yl)-4-(1-pyridin-3-yl-1H-indol-3-yl)-1H-pyrrole-2,5-dione] |  | 70.7 | 1.0820 and 1.1862 and 1.1076 | 0.3280
CC(C)(O)CCn1nc(C2=C(c3cn(-c4cccnc4)c4ccccc34)C(=O)NC2=O)c2ccccc21 [Compound 223, 3-[1-(3-Hydroxy-3-methylbutyl)-1H-indazol-3-yl]-4-(1-pyridin-3-yl-1H-indol-3-yl)-1H-pyrrole-2,5-dione] |  | 129.0 | 1.8401 and 1.7563 | 0.4881
CN(C)c1cccc(-n2cc(C3=C(c4nn(CCO)c5ccccc45)C(=O)NC3=O)c3ccccc32)c1 [Compound 145, 3-{1-[3-(Dimethylamino)phenyl]-1H-indol-3-yl}-4-[1-(2-hydroxyethyl)-1H-indazol-3-yl]-1H-pyrrole-2,5-dione] |  | 61.1 | 0.8722 and 0.9660 | 0.0747
